Measurements from patent US7083949.
Blank lines part the entries; values can stand above or below the binder they belong to.

Experiments:
[1] = target: recombinant human IL-13 (CHO; Applicants' own material) (human, UniProt P35225 partial chain, limits assumed); assay: cell-based or functional assay
human IL-6 = target: T1, human IL-6 (human, UniProt P05231 30-212); assay: affinity chromatography on NHS-activated Sepharose derivatized with recombinant human IL-6
T1 construct: also called recombinant human IL-6

human IL-6, sequence (P05231 30-212 limits assumed): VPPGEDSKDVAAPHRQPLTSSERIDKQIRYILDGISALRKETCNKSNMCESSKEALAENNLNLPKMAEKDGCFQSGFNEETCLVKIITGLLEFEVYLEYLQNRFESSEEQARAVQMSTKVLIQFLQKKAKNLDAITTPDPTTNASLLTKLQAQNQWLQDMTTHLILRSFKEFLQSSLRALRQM
UniProt P35225, sequence (P35225 35-146 limits assumed): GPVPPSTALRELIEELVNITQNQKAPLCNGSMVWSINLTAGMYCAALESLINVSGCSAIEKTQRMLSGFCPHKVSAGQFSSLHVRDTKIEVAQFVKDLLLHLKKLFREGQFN

- IC50, TF1 cell proliferation with 15 pM IL-13 (CHO), MTS [1]: 17 pM
B1: IL-4/IL-13 Trap 1132 (Fc fusion)
chain: [not shown - about 200 residues]PTETQPPVTNLSVSVENLATVIWTWNPPEGASSNCSLWYFSHFGDKQDKKIAPETRRSIEVPLNERICLQVGSQCSTNESEKPSILVEKCISPPEGDPESAVTELQCIWHNLSYMKCSWLPGRNTSPDTNYTLYYWHRSLEKIHQCENIFREGQYFGCSFDLTKVKDSSFEQHSVQIMVKDNAGKIKPSFNIVPLTSRVKPDPPHIKNLSFHNDDLYVQWENPQNFISRCLFYEVEVNNSQTETHNVFYVQEAKCENPEFERNVENTSCFMVPGVLPDTLNTVRIRVKTNKLCYEDDKLWSNWSQEMSIGKKRNSTG[not shown - human IgG1 Fc]
notes: The changes are already in the entry; Nucleotides numbered from -69: the first 23 residues precede the mature N-terminus; not cut here

- binding result (human IL-6): no binding
B2: gp130-Cγ1 dimer (other)
chain: ELLDPCGYISPESPVVQLHSNFTAVCVLKEKCMDYFHVNANYIVWKTNHFTIPKEQYTIINRTASSVTFTDIASLNIQLTCNILTFGQLEQNVYGITIISGLPPEKPKNLSCIVNEGKKMRCEWDGGRETHLETNFTLKSEWATHKFADCKAKRDTPTSCTVDYSTVYFVNIEVWVEAENALGKVTSDHINFDPVYKVKPNPPHNLSVINSEELSSILKLTWTNPSIKSVIILKYNIQYRTKDASTWSQIPPEDTASTRSSFTVQDLKPFTEYVFRIRCMKEDGKGYWSDWSEEASGITYEDRPSKAPSFWYKIDPSHTQGYRTVQLVWKTLPPFEANGKILDYEVTLTRWKSHLQNYTVNATKLTVNLTNDRYLATLTVRNLVGKSDAAVLTIPACDFQATHPVMDLKAFPKDNMLWVEWTTPRESVKKYILEWCVLSDKAPCITDWQQEDGTVHRTYLRGNLAESKCYLITVTPVYADGPGSPESIKAYLKQAPPSKGPTVRTKKVGKNEAVLEWDQLPVDVQNGFIRNYTIFYRTIIGNETAVNVDSSHTEYTLSSLTSDTLYMVRMAAYTDEGGKDGPEFTFTTPKFAQGEIESG[not shown - human IgG1 constant region]
notes: Homodimer without IL-6Rα-κ, removed on the IL-6 column; also called (gp130-Cγ1)2
